The full ranking holds about 33,000 sequences; the median of “E-score (-0.5 to 0.5)” is about -0.021, and the highest 2% start at about 0.32. Some of the results follow.

From the supplement of paper PMC3334620 come the findings set out here.

In this experiment the target is T1, Zap1 (UniProt P47043).
T1 sequence: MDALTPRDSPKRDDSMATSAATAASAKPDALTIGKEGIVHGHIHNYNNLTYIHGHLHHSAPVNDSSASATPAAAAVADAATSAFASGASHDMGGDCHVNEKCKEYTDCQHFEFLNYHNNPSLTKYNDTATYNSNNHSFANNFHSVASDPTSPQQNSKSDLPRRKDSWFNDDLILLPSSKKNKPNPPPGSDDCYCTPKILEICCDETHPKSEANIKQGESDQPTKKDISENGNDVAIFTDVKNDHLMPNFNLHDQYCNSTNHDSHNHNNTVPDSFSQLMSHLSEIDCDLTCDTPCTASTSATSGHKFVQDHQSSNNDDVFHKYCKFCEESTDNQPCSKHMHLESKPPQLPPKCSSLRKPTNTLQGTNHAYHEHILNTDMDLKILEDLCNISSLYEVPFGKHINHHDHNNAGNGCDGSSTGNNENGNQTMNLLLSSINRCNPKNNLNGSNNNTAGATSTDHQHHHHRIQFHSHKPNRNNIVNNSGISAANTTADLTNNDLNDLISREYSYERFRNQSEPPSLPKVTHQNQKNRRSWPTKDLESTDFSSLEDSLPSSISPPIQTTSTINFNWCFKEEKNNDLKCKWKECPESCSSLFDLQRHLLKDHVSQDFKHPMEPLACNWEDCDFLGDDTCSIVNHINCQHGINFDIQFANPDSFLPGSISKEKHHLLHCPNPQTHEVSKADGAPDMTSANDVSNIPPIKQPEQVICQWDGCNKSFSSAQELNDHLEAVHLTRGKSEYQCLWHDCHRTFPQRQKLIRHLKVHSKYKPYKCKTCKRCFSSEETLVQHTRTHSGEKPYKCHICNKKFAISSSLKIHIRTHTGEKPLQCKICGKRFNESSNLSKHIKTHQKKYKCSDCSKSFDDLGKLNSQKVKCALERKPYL
Description: PBM E-score (8-mer binding enrichment) (E-score (-0.5 to 0.5)); higher = stronger / more preferred TF binding; most listed sequences are background and not binding sites. The conditions noted are these: protein concentration: 200 nM; construct: GST-full length. The procedure, abridged: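 GST-tagged yeast TFs (full-length or DNA-binding domain) were made by PURExpress in vitro transcription/translation and applied at about 100-200 nM to universal all-10-mer Agilent arrays. The arrays were made double-stranded by primer extension, on fresh or once-stripped slides. Bound protein was detected with fluorescent anti-GST, and scans were normalised with masliner. Each ungapped eight-base word, pooled with its reverse complement, received an E-score (modified Wilcoxon-Mann-Whitney statistic) from the Universal PBM Analysis Suite.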
For the sequence AGAAGCTG, the “PBM E-score” value was -0.059.

For ACAGATTA, the “PBM E-score” value is -0.124.

Turning to AGGATGCC, the “PBM E-score” value is -0.281.

Regarding AGTAGAAC, the “PBM E-score” value was -0.0178.

For GGATCTTA, the “PBM E-score” value is 0.0936.

For ATCATAAC, the “PBM E-score” value stood at 0.296.

For the sequence CTAGAAGC, the “PBM E-score” value was -0.191.

For CCAGTAGA, the “PBM E-score” value is -0.0348.

AGCATTCG: the “PBM E-score” value was -0.286.

Regarding ACTCCTAG, the “PBM E-score” value is -0.214.

Regarding ATGACACC, the “PBM E-score” value was determined as 0.00969.

As to TCGGAACA, the “PBM E-score” value came out at 0.0868.

As to GGGGCTGA, the “PBM E-score” value was -0.25.

For GAGCGTCC, the “PBM E-score” value is -0.134.

As to AATGGACG, the “PBM E-score” value is 0.141.

With AGAGTCGC, the “PBM E-score” value is -0.145.

Turning to ATTTAACG, the “PBM E-score” value amounted to 0.023.

Take AATGTTGG: the “PBM E-score” value is 0.0653.

Turning to GAAACCGC, the “PBM E-score” value is 0.15.

For the sequence AAGGGCCT, the “PBM E-score” value stood at 0.141.

Take CGTAGCCC: the “PBM E-score” value is -0.102.

Turning to GCACTACA, the “PBM E-score” value was -0.146.

Consider ATCGATTA, for which the “PBM E-score” value came to 0.115.

In the case of CCAATGCC, the “PBM E-score” value is -0.211.

On to ACGTATCT, for which the “PBM E-score” value is -0.336.

In the case of CACTGGGA, the “PBM E-score” value is -0.062.

As for TAGTTCCA, the “PBM E-score” value turned out to be 0.0983.

For the sequence AATATCTG, the “PBM E-score” value is -0.0386.

Take AGGGGGGA: the “PBM E-score” value was -0.43.

As to AATGGTGC, the “PBM E-score” value worked out at 0.0377.

ATTCTTCA: the “PBM E-score” value is 0.133.

In the case of GACTGATA, the “PBM E-score” value is -0.187.

With CGGTACAC, the “PBM E-score” value was determined as 0.0303.

As to ACTAACGC, the “PBM E-score” value is -0.0302.

On to AACAAGAC, for which the “PBM E-score” value worked out at 0.113.

On to AGCTCCGC, for which the “PBM E-score” value was -0.146.

For CTGATGTC, the “PBM E-score” value was -0.0263.

ACTGAACC: the “PBM E-score” value is 0.0526.

Turning to AACGGCGA, the “PBM E-score” value came out at 0.0503.

Turning to GGGCATCA, the “PBM E-score” value is -0.177.

As for AAGGTGTC, the “PBM E-score” value came to 0.0843.

As for ACGGTAGT, the “PBM E-score” value turned out to be 0.256.

With CGCAGGAG, the “PBM E-score” value is -0.0415.

For the sequence AATAGGGG, the “PBM E-score” value worked out at 0.0477.

GCCCACAC: the “PBM E-score” value was -0.102.

As for ATTAGGGA, the “PBM E-score” value was -0.02.

As to AAACGCTG, the “PBM E-score” value is -0.173.

As to CTATGCTC, the “PBM E-score” value was -0.174.

Take CATACTTC: the “PBM E-score” value was -0.108.

On to CTTCCTTC, for which the “PBM E-score” value was -0.293.

AGAAAGAT: the “PBM E-score” value is -0.0628.

As for TGCGGCAA, the “PBM E-score” value was -0.0438.

For GTAACCAC, the “PBM E-score” value stood at 0.431.

For the sequence GCTGGCTA, the “PBM E-score” value was -0.211.

Take CCAGCGGG: the “PBM E-score” value came out at 0.0224.

Regarding AAAACACG, the “PBM E-score” value is 0.102.

As for ATATGTAG, the “PBM E-score” value was -0.0332.

Consider ATGCAGAA, for which the “PBM E-score” value was 0.0715.

With AGCTTAAC, the “PBM E-score” value was -0.0482.

Turning to AGTTTTCC, the “PBM E-score” value is -0.0453.

For GCAGTAAA, the “PBM E-score” value was 0.104.

On to ATATCATG, for which the “PBM E-score” value stood at 0.0109.

On to CCTTCTAA, for which the “PBM E-score” value was determined as 0.0042.

Take CGAATACA: the “PBM E-score” value is -0.12.

With ATGTGCAG, the “PBM E-score” value was -0.142.

In the case of CCTAGGGC, the “PBM E-score” value is -0.041.

Turning to CATGAATG, the “PBM E-score” value is -0.156.

As to ATTATTAC, the “PBM E-score” value came to 0.21.

CTGGACGA: the “PBM E-score” value is -0.253.

For the sequence CGTGGGCC, the “PBM E-score” value was -0.0526.

For the sequence AGCAAAAT, the “PBM E-score” value is -0.0135.

Take AAAACGGC: the “PBM E-score” value was -0.0578.

CGGAACAA: the “PBM E-score” value came to 0.0784.

As to AGTCGGTC, the “PBM E-score” value is -0.238.

For the sequence AATGTTAC, the “PBM E-score” value turned out to be 0.0925.

As to CGGTCTTA, the “PBM E-score” value is -0.00835.

As to AGCTTCTC, the “PBM E-score” value is -0.261.

Consider GAACTTAC, for which the “PBM E-score” value was -0.0266.

Regarding CACATACC, the “PBM E-score” value was 0.096.

Turning to GGTGGCGA, the “PBM E-score” value is -0.0704.

For CGGACAAA, the “PBM E-score” value is 0.0366.

For GTCACGAA, the “PBM E-score” value was determined as 0.14.

Take CGATGTGA: the “PBM E-score” value is -0.135.

As to ATACCTGG, the “PBM E-score” value is -0.129.

For the sequence CAGTGAGA, the “PBM E-score” value is -0.0523.

Consider GACAAGAC, for which the “PBM E-score” value is 0.11.
